Measured values published in the supplement of paper PMC11876631.
± gives the standard deviation of the averaged measurements. Laboratory Escherichia coli strains with one amino-acid change in an essential protein, pooled on minimal glucose agar with carbenicillin or gentamicin at twice the control MIC (plus kanamycin and chloramphenicol for the plasmids), 48 h. Fold change of barcode share against drug-free plates; higher = less susceptible. Active = above 20 in both replicates (the paper's putatively resistant). '<' = one read or none on drug, '>' = one read or none on a drug-free plate. Shares are relative, so most strains fall below 1 when a few take over. Listed are strains with at least 15 reads on both drug-free plates, and hits; most hits rest on fewer reference reads. Replicate rank correlation about 0.5. Edits are read from barcodes.

B1: hemB F121A (protein)
chain: MTDLIQRPRRLRKSPALRAMFEETTLSLNDLVLPIFVEEEIDDYKAVEAMPGVMRIPEKHLAREIERIANAGIRSVMTFGISHHTDETGSDAWREDGLVARMSRICKQTVPEMIVMSDTCACEYTSHGHCGVLCEHGVDNDATLENLGKQAVVAAAAGADFIAPSAAMDGQVQAIRQALDAAGFKDTAIMSYSTKFASSFYGPFREAAGSALKGDRKSYQMNPMNRREAIRESLLDEAQGADCLMVKPAGAYLDIVRELRERTELPIGAYQVSGEYAMIKFAALAGAIDEEKVVLESLGSIKRAGADLIFSYFALDLAEKKILR
B2: hemB M116Q (protein)
chain: MTDLIQRPRRLRKSPALRAMFEETTLSLNDLVLPIFVEEEIDDYKAVEAMPGVMRIPEKHLAREIERIANAGIRSVMTFGISHHTDETGSDAWREDGLVARMSRICKQTVPEMIVQSDTCFCEYTSHGHCGVLCEHGVDNDATLENLGKQAVVAAAAGADFIAPSAAMDGQVQAIRQALDAAGFKDTAIMSYSTKFASSFYGPFREAAGSALKGDRKSYQMNPMNRREAIRESLLDEAQGADCLMVKPAGAYLDIVRELRERTELPIGAYQVSGEYAMIKFAALAGAIDEEKVVLESLGSIKRAGADLIFSYFALDLAEKKILR
B3: hemB F121W (protein)
chain: MTDLIQRPRRLRKSPALRAMFEETTLSLNDLVLPIFVEEEIDDYKAVEAMPGVMRIPEKHLAREIERIANAGIRSVMTFGISHHTDETGSDAWREDGLVARMSRICKQTVPEMIVMSDTCWCEYTSHGHCGVLCEHGVDNDATLENLGKQAVVAAAAGADFIAPSAAMDGQVQAIRQALDAAGFKDTAIMSYSTKFASSFYGPFREAAGSALKGDRKSYQMNPMNRREAIRESLLDEAQGADCLMVKPAGAYLDIVRELRERTELPIGAYQVSGEYAMIKFAALAGAIDEEKVVLESLGSIKRAGADLIFSYFALDLAEKKILR
B4: hemB M116A (protein)
chain: MTDLIQRPRRLRKSPALRAMFEETTLSLNDLVLPIFVEEEIDDYKAVEAMPGVMRIPEKHLAREIERIANAGIRSVMTFGISHHTDETGSDAWREDGLVARMSRICKQTVPEMIVASDTCFCEYTSHGHCGVLCEHGVDNDATLENLGKQAVVAAAAGADFIAPSAAMDGQVQAIRQALDAAGFKDTAIMSYSTKFASSFYGPFREAAGSALKGDRKSYQMNPMNRREAIRESLLDEAQGADCLMVKPAGAYLDIVRELRERTELPIGAYQVSGEYAMIKFAALAGAIDEEKVVLESLGSIKRAGADLIFSYFALDLAEKKILR
B5: hemB F121P (protein)
chain: MTDLIQRPRRLRKSPALRAMFEETTLSLNDLVLPIFVEEEIDDYKAVEAMPGVMRIPEKHLAREIERIANAGIRSVMTFGISHHTDETGSDAWREDGLVARMSRICKQTVPEMIVMSDTCPCEYTSHGHCGVLCEHGVDNDATLENLGKQAVVAAAAGADFIAPSAAMDGQVQAIRQALDAAGFKDTAIMSYSTKFASSFYGPFREAAGSALKGDRKSYQMNPMNRREAIRESLLDEAQGADCLMVKPAGAYLDIVRELRERTELPIGAYQVSGEYAMIKFAALAGAIDEEKVVLESLGSIKRAGADLIFSYFALDLAEKKILR
B6: hemB M116W (protein)
chain: MTDLIQRPRRLRKSPALRAMFEETTLSLNDLVLPIFVEEEIDDYKAVEAMPGVMRIPEKHLAREIERIANAGIRSVMTFGISHHTDETGSDAWREDGLVARMSRICKQTVPEMIVWSDTCFCEYTSHGHCGVLCEHGVDNDATLENLGKQAVVAAAAGADFIAPSAAMDGQVQAIRQALDAAGFKDTAIMSYSTKFASSFYGPFREAAGSALKGDRKSYQMNPMNRREAIRESLLDEAQGADCLMVKPAGAYLDIVRELRERTELPIGAYQVSGEYAMIKFAALAGAIDEEKVVLESLGSIKRAGADLIFSYFALDLAEKKILR
B7: hemB F121Q (protein)
chain: MTDLIQRPRRLRKSPALRAMFEETTLSLNDLVLPIFVEEEIDDYKAVEAMPGVMRIPEKHLAREIERIANAGIRSVMTFGISHHTDETGSDAWREDGLVARMSRICKQTVPEMIVMSDTCQCEYTSHGHCGVLCEHGVDNDATLENLGKQAVVAAAAGADFIAPSAAMDGQVQAIRQALDAAGFKDTAIMSYSTKFASSFYGPFREAAGSALKGDRKSYQMNPMNRREAIRESLLDEAQGADCLMVKPAGAYLDIVRELRERTELPIGAYQVSGEYAMIKFAALAGAIDEEKVVLESLGSIKRAGADLIFSYFALDLAEKKILR
B8: argG M261W (protein)
chain: MTTILKHLPVGQRIGIAFSGGLDTSAALLWMRQKGAVPYAYTANLGQPDEEDYDAIPRRAMEYGAENARLIDCRKQLVAEGIAAIQCGAFHNTTGGLTYFNTTPLGRAVTGTMLVAAMKEDGVNIWGDGSTYKGNDIERFYRYGLLTNAELQIYKPWLDTDFIDELGGRHEMSEFMIACGFDYKMSVEKAYSTDSNMLGATHEAKDLEYLNSSVKIVNPIMGVKFWDESVKIPAEEVTVRFEQGHPVALNGKTFSDDVEMWLEANRIGGRHGLGMSDQIENRIIEAKSRGIYEAPGMALLHIAYERLLTGIHNEDTIEQYHAHGRQLGRLLYQGRWFDSQALMLRDSLQRWVASQITGEVTLELRRGNDYSILNTVSENLTYKPERLTMEKGDSVFSPDDRIGQLTMRNLDITDTREKLFGYAKTGLLSSSAASGVPQVENLENKGQ
B9: argG M261P (protein)
chain: MTTILKHLPVGQRIGIAFSGGLDTSAALLWMRQKGAVPYAYTANLGQPDEEDYDAIPRRAMEYGAENARLIDCRKQLVAEGIAAIQCGAFHNTTGGLTYFNTTPLGRAVTGTMLVAAMKEDGVNIWGDGSTYKGNDIERFYRYGLLTNAELQIYKPWLDTDFIDELGGRHEMSEFMIACGFDYKMSVEKAYSTDSNMLGATHEAKDLEYLNSSVKIVNPIMGVKFWDESVKIPAEEVTVRFEQGHPVALNGKTFSDDVEMPLEANRIGGRHGLGMSDQIENRIIEAKSRGIYEAPGMALLHIAYERLLTGIHNEDTIEQYHAHGRQLGRLLYQGRWFDSQALMLRDSLQRWVASQITGEVTLELRRGNDYSILNTVSENLTYKPERLTMEKGDSVFSPDDRIGQLTMRNLDITDTREKLFGYAKTGLLSSSAASGVPQVENLENKGQ
B10: argG M261Q (protein)
chain: MTTILKHLPVGQRIGIAFSGGLDTSAALLWMRQKGAVPYAYTANLGQPDEEDYDAIPRRAMEYGAENARLIDCRKQLVAEGIAAIQCGAFHNTTGGLTYFNTTPLGRAVTGTMLVAAMKEDGVNIWGDGSTYKGNDIERFYRYGLLTNAELQIYKPWLDTDFIDELGGRHEMSEFMIACGFDYKMSVEKAYSTDSNMLGATHEAKDLEYLNSSVKIVNPIMGVKFWDESVKIPAEEVTVRFEQGHPVALNGKTFSDDVEMQLEANRIGGRHGLGMSDQIENRIIEAKSRGIYEAPGMALLHIAYERLLTGIHNEDTIEQYHAHGRQLGRLLYQGRWFDSQALMLRDSLQRWVASQITGEVTLELRRGNDYSILNTVSENLTYKPERLTMEKGDSVFSPDDRIGQLTMRNLDITDTREKLFGYAKTGLLSSSAASGVPQVENLENKGQ
B11: hemA L187W (protein)
chain: MTLLALGINHKTAPVSLRERVSFSPDKLDQALDSLLAQPMVQGGVVLSTCNRTELYLSVEEQDNLQEALIRWLCDYHNLNEEDLRKSLYWHQDNDAVSHLMRVASGLDSLVLGEPQILGQVKKAFADSQKGHMKASELERMFQKSFSVAKRVRTETDIGASAVSVAFAACTLARQIFESLSTVTVLWVGAGETIELVARHLREHKVQKMIIANRTRERAQILADEVGAEVIALSDIDERLREADIIISSTASPLPIIGKGMVERALKSRRNQPMLLVDIAVPRDVEPEVGKLANAYLYSVDDLQSIISHNLAQRKAAAVEAETIVAQETSEFMAWLRAQSASETIREYRSQAEQVRDELTAKALAALEQGGDAQAIMQDLAWKLTNRLIHAPTKSLQQAARDGDNERLNILRDSLGLE
B12: hemA L276W (protein)
chain: MTLLALGINHKTAPVSLRERVSFSPDKLDQALDSLLAQPMVQGGVVLSTCNRTELYLSVEEQDNLQEALIRWLCDYHNLNEEDLRKSLYWHQDNDAVSHLMRVASGLDSLVLGEPQILGQVKKAFADSQKGHMKASELERMFQKSFSVAKRVRTETDIGASAVSVAFAACTLARQIFESLSTVTVLLVGAGETIELVARHLREHKVQKMIIANRTRERAQILADEVGAEVIALSDIDERLREADIIISSTASPLPIIGKGMVERALKSRRNQPMLWVDIAVPRDVEPEVGKLANAYLYSVDDLQSIISHNLAQRKAAAVEAETIVAQETSEFMAWLRAQSASETIREYRSQAEQVRDELTAKALAALEQGGDAQAIMQDLAWKLTNRLIHAPTKSLQQAARDGDNERLNILRDSLGLE
B13: hemA L276A (protein)
chain: MTLLALGINHKTAPVSLRERVSFSPDKLDQALDSLLAQPMVQGGVVLSTCNRTELYLSVEEQDNLQEALIRWLCDYHNLNEEDLRKSLYWHQDNDAVSHLMRVASGLDSLVLGEPQILGQVKKAFADSQKGHMKASELERMFQKSFSVAKRVRTETDIGASAVSVAFAACTLARQIFESLSTVTVLLVGAGETIELVARHLREHKVQKMIIANRTRERAQILADEVGAEVIALSDIDERLREADIIISSTASPLPIIGKGMVERALKSRRNQPMLAVDIAVPRDVEPEVGKLANAYLYSVDDLQSIISHNLAQRKAAAVEAETIVAQETSEFMAWLRAQSASETIREYRSQAEQVRDELTAKALAALEQGGDAQAIMQDLAWKLTNRLIHAPTKSLQQAARDGDNERLNILRDSLGLE

target: Escherichia coli (laboratory strain); experiment: barcode share on antibiotic plates over drug-free plates; higher = less susceptible; conditions: antibiotic: carbenicillin; 2× MIC (3.1 µg/mL)
Method: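 A pool of E. coli strains, each edited to carry one amino-acid change in an essential protein, was grown for 48 h on minimal glucose agar with or without antibiotic; strain barcodes were sequenced; mean of two replicates.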

Protein	fold change of barcode share
B1	0.315 ± 0.13
B2	0.194 ± 0.015
B3	0.533 ± 0.062
B4	0.227 ± 0.016
B5	0.264 ± 0.044
B6	0.313 ± 0.14
B7	0.313 ± 0.063
B8	0.268 ± 0.25
B9	0.16 ± 0.17
B10	0.24 ± 0.17
B11	0.45 ± 0.012
B12	0.405 ± 0.38
B13	0.304 ± 0.041

same assay, conditions: antibiotic: gentamicin; 2× MIC (MIC 0.45 µg/mL)

Protein	fold change of barcode share
B1	0.0125 ± 0.0033
B2	< 0.0106
B3	0.233 ± 0.33
B4	0.0262 ± 0.029
B5	0.482 ± 0.066
B6	< 0.0095
B7	0.00608 ± 0.0027
B8	< 0.00438
B9	< 0.0144
B10	0.011 ± 0.0083
B11	0.0609 ± 0.081
B12	< 0.00813
B13	0.0126 ± 0.0028
